# Measured values reported in the supplement of paper PMC3334620.
# Over roughly 33,000 sequences, “E-score (-0.5 to 0.5)” has its median near -0.016; the highest 2% begin near 0.32. Some of the results follow.
# Target: T1, Stp1 (UniProt B3LFK1)
# T1 sequence: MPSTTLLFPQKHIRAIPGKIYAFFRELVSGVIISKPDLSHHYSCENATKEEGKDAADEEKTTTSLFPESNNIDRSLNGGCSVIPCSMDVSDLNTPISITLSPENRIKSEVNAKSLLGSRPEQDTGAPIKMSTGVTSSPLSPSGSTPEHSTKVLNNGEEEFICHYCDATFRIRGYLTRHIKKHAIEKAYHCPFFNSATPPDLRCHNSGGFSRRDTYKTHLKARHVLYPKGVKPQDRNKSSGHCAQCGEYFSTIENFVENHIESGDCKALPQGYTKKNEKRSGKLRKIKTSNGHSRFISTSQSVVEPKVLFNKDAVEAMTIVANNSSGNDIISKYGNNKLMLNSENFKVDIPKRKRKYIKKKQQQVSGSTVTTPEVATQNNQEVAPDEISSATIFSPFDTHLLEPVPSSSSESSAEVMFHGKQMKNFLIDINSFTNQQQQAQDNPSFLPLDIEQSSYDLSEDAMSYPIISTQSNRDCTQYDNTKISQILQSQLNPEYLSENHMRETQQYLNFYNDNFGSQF
# Assay: PBM E-score (8-mer binding enrichment) (E-score (-0.5 to 0.5)); higher = stronger / more preferred TF binding; most listed sequences are background and not binding sites
# Conditions: protein concentration: 200 nM; construct: GST-full length
# Method: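 Universal 'all 10-mer' protein binding microarrays (Agilent AMADID 015681) probed with GST-tagged S. cerevisiae TFs (full-length or DBD) made by in vitro transcription/translation (PURExpress), about 100-200 nM. Bound TF was detected with fluorescent anti-GST. Each ungapped 8-mer (which stands for itself and its reverse complement) is scored by the PBM enrichment score (E-score), a modified Wilcoxon-Mann-Whitney statistic from -0.5 to +0.5, computed with the Universal PBM Analysis Suite. Scale: above 0.35 generally sequence-specific binding.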
row,Sequence,PBM E-score
1,AAGTTGAA,0.0406
2,CCATACTC,-0.203
3,CGAGCTTC,0.0433
4,AATCCCTC,-0.156
5,AGCGCGCA,0.114
6,TAATATAA,0.288
7,GAAGCGCC,0.337
8,TAGCTTAA,-0.0347
9,ACTATGCA,-0.0895
10,GCTGACTA,-0.129
11,GACGCAAA,0.0112
12,ACATCTCG,-0.12
13,AGGCATTC,0.106
14,AAGGATGC,-0.187
15,CCTGCTAG,-0.243
16,AAGAATCC,-0.0635
17,CCATGCGA,0.0104
18,ATCACTAA,0.0331
19,CCCGCCCC,0.0473
20,ATGCGGTC,0.0837
21,AATGAGTG,0.248
22,CTGATCGC,0.00771
23,AGTTCCAT,0.0785
24,AGGTGTAC,-0.083
25,AAACACCT,0.0286

row,Sequence,PBM E-score
1,TATCGTGA,0.0729
2,GAGTACCA,-0.0895
3,CGTTGCGA,-0.143
4,ACGCACCG,0.0649
5,ATTACTGA,0.0208
6,CTACTGAG,-0.179
7,TCCAAAGA,0.107
8,CCTCAATA,-0.0994
9,GCGCTGAA,-0.0189
10,AAGAAAAA,0.14
11,ATGACCTG,-0.216
12,GGTTGTGA,0.021
13,TTAGACAA,0.155
14,GGCGTCTA,0.184
15,AAGATGTG,0.105
16,GGACTACC,-0.286
17,ACGCCCAC,0.0413
18,CCCGAACC,-0.335
19,CAAACCAG,-0.23
20,CCTAAGCC,-0.355
21,CACACCGG,-0.101
22,CACACGCA,-0.0781
23,CCTGGTAG,-0.377
24,CCTTATAC,0.131
25,CAGTCACG,-0.217

row,Sequence,PBM E-score
1,GGTCCTGA,-0.163
2,CCGGTGCG,0.0017
3,CAGTGGTC,-0.205
4,GGTAACAC,0.02
5,AATTTTCA,0.0155
6,GACACTCA,-0.0595
7,CCACTCTA,-0.045
8,ACCGTCCG,-0.126
9,AAATATTT,0.206
10,CTGCTGGC,-0.201
11,AGTACACC,-0.0861
12,ATATACCG,0.169
13,CGCAGCTA,0.0823
14,TAATGCGA,0.0064
15,CTTTCACC,-0.133
16,CTGCCAGA,-0.0541
17,ACTCCACT,-0.185
18,ACAGCTTG,0.0542
19,AAGCCGGA,0.0672
20,AACGTCGC,0.0537
21,CAAGAGCC,0.21
22,CTTGAACA,0.0105
23,TTGAGAAA,0.14
24,GCGGACCA,0.0779
25,ATGTAATA,0.232

row,Sequence,PBM E-score
1,CACTGGGC,-0.115
2,GCTAATCC,0.0288
3,GGTGCATA,0.0601
4,CAAGATCG,-0.123
5,CTGTGGAA,0.0782
6,CTGTAAGC,-0.00316
7,CTTCACCC,0.102
8,GGCTCCTA,-0.146
9,TACAAGGA,-0.0214
10,AAATTCTT,0.0204
11,TATCTGCA,-0.0952
12,ACCTCCCG,-0.269
13,CAGGGGAC,-0.233
14,CGATGGCG,0.135
15,AATCCGGT,0.0539
16,TGCGCTAA,-0.0463
17,GCCGTTCC,0.432
18,GACTAGAC,-0.2
19,CAAACACG,0.144
20,CAGCCCGC,-0.276
21,GAAACCAC,-0.071
22,GTTACGAA,0.0653
23,ACGTGCAA,0.0742
24,AAACAATA,0.242
25,AGTCTCTC,-0.308

row,Sequence,PBM E-score
1,GTCTCGAA,-0.148
2,ACGCTGCC,0.045
3,TATCTTGA,0.0161
4,CAGCAAAG,-0.0961
5,ATTGGCAG,-0.117
6,AAAGTGCG,0.0942
7,TTAGCAAA,0.177
8,GTATCCAC,-0.116
9,GCGCCAGA,0.0726
10,TCCATTAA,0.0812
11,CGTATGCC,0.186
12,CTCAAAAG,0.0993
13,TACCGCCA,0.00821
14,GACATAGA,0.0833
15,AATGTAGA,-0.106
16,AGCTTGCG,0.0255
17,CTGTATAA,0.0921
18,AGAGTTAG,-0.0424
19,TGTACAAA,0.155
20,AGCTCTGC,-0.344
21,GCTTGTAC,0.167
22,CCGGAGCA,-0.181
23,ACCGAACA,0.105
24,CAATTGGC,0.0835
25,ATTCATAG,0.0844

row,Sequence,PBM E-score
1,GAGCCGAC,-0.156
2,CGCCTATA,-0.0418
3,CATATGGA,0.00529
4,CCTACACC,-0.292
5,GCCTTAGA,0.195
6,TGACGCCA,0.0207
7,AAATTAAT,0.12
8,TCGTGTAA,0.0773
9,AGTCATCG,-0.043
10,GACGGAGA,-0.202
11,ACTAACCC,-0.161
12,CTGAGAAG,-0.216
13,ATTGCCCA,-0.0152
14,GCTCACCC,-0.098
15,CTGCCTTC,-0.115
16,CGCGAAAG,-0.0342
17,CGGGTCAG,0.0137
18,GATGAGAC,0.0979
19,CTTACTAA,-0.0866
20,CCTATTGA,-0.0999
21,AGACCTAT,-0.0764
22,AAGCCCAT,-0.0914
23,AACATCAT,-0.0756
24,AAGGCCAA,-0.0435
25,CTCTGAGA,-0.194

row,Sequence,PBM E-score
1,CCCTGAAC,-0.0646
2,GACTCTTA,-0.209
3,GAGCTAGA,-0.0519
4,AACAAAAG,0.244
5,GGCGGAAC,0.125
6,AGGCGTCC,-0.0371
7,CCATGGCC,-0.177
8,CATCCAGC,-0.0777
9,CGTGTATA,0.132
10,ATAGCGCA,-0.228
11,GCGCAAGA,0.223
12,TACGATCA,0.0444
13,AGTGAATG,0.0894
14,AAGCGAAG,0.00833
15,ATGTCTTG,-0.0302
16,ACAATCAT,-0.00872
17,AAAAGACA,0.161
18,ACGCACTG,-0.144
19,ATGACGGA,-0.0588
20,GAAGCATA,-0.00057
21,GCTATTTA,0.0633
22,GAGTGGGA,-0.161
